This note sets out measurements from the supplement of paper PMC11417369.

± gives the standard deviation of the averaged measurements. Some of the results follow.

The subject of this assay is PfAP2-G AP2 domain (GST-tagged). Nature of the assay: gcPBM binding intensity (ln(normalized median fluorescence intensity)); higher = stronger DNA binding. The method, boiled down:
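Binding intensity values are the highest Masliner-normalised natural-log median intensity among replicate spots of either probe orientation. The binding step lasted 1 h in 1× PBS with 1% milk, 0.2 mg/ml BSA, 0.5% salmon testes DNA and 0.03% Triton X-100, using GST-tagged P. falciparum DNA-binding domains expressed in E. coli on an Agilent 4 × 180k array of primer-extended double-stranded 36-bp intergenic genomic probes plus negative controls. Alexa488 anti-GST antibody and a 488 nm scan detected bound protein.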
Take “ATTAACTATCATAACACACACAGTAGACATATTTTT [CACACA_site1822]”: the “gcPBM binding intensity (ln)” value came to 9.995 ± 0.078.
The value for “AAATCATTTAAGAACACACAAATATTTCCATTAAAT [CACACA_site6808]” was 10.1 ± 0.11.
As to “AAGATAATATTTTCTTGTACGCATGCACATACAAAT [XGTACX_site7181]”, the “gcPBM binding intensity (ln)” value worked out at 11.6 ± 1.1.
The result for “CTTTTCTCCCTCCATAGTACAATTATAAAAATATAT [XGTACX_site3090]” reads 10.7 ± 0.63; that for “ATGCAAAGTTTATAAAGTACATAAGTCAAAATAAAA [XGTACX_site1441]”, 11.1 ± 0.67.
As for “TCTATATCTTTCAACACACAAATTTTTTTTTCCATC [CACACA_site4238]”, the “gcPBM binding intensity (ln)” value is 9.95 ± 0.099.
For “AAAAAAAAAAAAAAAGTGCACAGTCGTTTTAAAAAA [GTGCAC_site9848]”, the “gcPBM binding intensity (ln)” value was determined as 10.8 ± 0.54.
Turning to “CTCAATGTTTGCGATACATGCAAAAATTTTTAGAAT [TGCATGCA_site165]”, the “gcPBM binding intensity (ln)” value amounted to 10.1 ± 0.24.
The result for “ACAAACATTAGGGAAGCATGCAATATTTTTTTACAT [TGCATGCA_site372]” reads 9.72 ± 0.071; that for “CTTATTATTATATGGGTGCTCATATTTTTCTTTTTT [GTGCAC_site9723]”, 9.99 ± 0.014; that for “ATATATATATATAAATGTACATTTTTCAATAGTTTT [XGTACX_site7449]”, 10.8 ± 0.4.
The value for “TATAAATAAATAGATACACACATATATATAAATACA [CACACA_site155]” was 9.98 ± 0.014; that for “TACTTTTTATTTTCTTGTACTTAATTGTCCAGATTT [XGTACX_site4334]” was 11.3 ± 0.84.
The result for “ATTATATACATATATATACACACGTAGTTTCTATTT [CACACA_site8697]” reads 9.81 ± 0.099; that for “AGATTTAAATTTATATGTACATAATATGGGCGTATA [XGTACX_site6631]”, 11.5 ± 0.88; that for GGTCTTCTTAATATACTGCACTGTATACGTATATAA, 10.5 ± 0.31.
In the case of “TTCATAAAATGATATTGTACAAATAAATAATAGTAT [XGTACX_site819]”, the “gcPBM binding intensity (ln)” value turned out to be 11 ± 0.61.
The value for “ATTCTTATTTAAAGGTGTACTCTTAAACAGATTTTA [XGTACX_site3526]” was 11.5 ± 1; that for “CACCCCCACAGACACACACACACACCCACATATATA [CACACA_site365]” was 11.1 ± 0.65.
The result for “GTACACATATAGTAATAATTTTATTATATTTTTTTG [CACACA_negctrl_site843]” reads 10.8 ± 0.38; that for “ATTTTAATATAAAATACACACTACTATTATAAATAT [CACACA_site4917]”, 10.1 ± 0.13.
The result for “TGTAGATTTTGTAACACACACATATATATACATATA [CACACA_site2405]” reads 9.985 ± 0.078.
With “AATATATGGTTCCATGATATTAAATTCAATTTAATG [CACACA_negctrl_site605]”, the “gcPBM binding intensity (ln)” value was 10.3 ± 0.19.
The result for “TTTTTTTTGTTCTATACAATTATAAAAATAAAATAT [XGTACX_negctrl_site53]” reads 9.8 ± 0.15; that for “GTACATAGATTGTACATACACACCTATATAAATATC [CACACA_site3225]”, 11.2 ± 0.58; that for “AATGTAAAAGTAAACACACACATATATAAATACATA [CACACA_site5386]”, 10.005 ± 0.007.
The value for “TACACAAGCAGACACACACACATATATATATATATA [CACACA_site1270]” was 10 ± 0.19; that for “GCTTATATAAAAAGTTGTACAACCGAATCTTTTACA [XGTACX_site2119]” was 11.5 ± 0.85.
The value for “TAATATCATTTATGTAGTACTATAACAAGAACTATA [XGTACX_site3618]” was 11.3 ± 0.63.
With “AAAAAAAAAAAGCACACACACATATGAGTATATATA [CACACA_site4683]”, the “gcPBM binding intensity (ln)” value amounted to 10.2 ± 0.11.
Take “TGTCATTTAATTTTTTGTACGAAAAAAACATATAAA [XGTACX_site4952]”: the “gcPBM binding intensity (ln)” value came out at 11.1 ± 0.78.
For the sequence “TAGATATATAGACACACACACATTAATACCTATATT [CACACA_site7605]”, the “gcPBM binding intensity (ln)” value amounted to 10.09 ± 0.028.
The result for “AGTTGTTTTAATAATGCATGTTATTTTATTTTAATA [TGCATGCA_site168]” reads 9.71 ± 0.17; that for “GTATATATATATGTATATATTTTATTTTATTTTTAT [CACACA_negctrl_site1439]”, 9.4 ± 0.23; that for “TATATATATAGACACACACACACATATATATATATA [CACACA_site9366]”, 10.2 ± 0.28.
The value for “AATTCAAAATAAAAATGTACATATATCAGAATATGG [XGTACX_site42]” was 11 ± 0.56.
The result for “ATATATAATCATATGTGTACATATATATTAATTTAA [XGTACX_site2839]” reads 11.4 ± 0.91; that for “ACTTGTAAGAAACACACACACACACCGATATATATA [CACACA_site4594]”, 10.1 ± 0.16; that for “AAAAATAAGAAAAAGTGTACTTTATTATGTATATAT [XGTACX_site2305]”, 11.4 ± 0.85.
In the case of “ATTATTTTTTTTCTTATACACACCATGCATCAAACT [CACACA_site2128]”, the “gcPBM binding intensity (ln)” value worked out at 10.2 ± 0.16.
The result for “AAAAAAAAAAAAAAAACACACATTTAATGAACTTAT [CACACA_site1276]” reads 10.4 ± 0.18.
Regarding “ATGAGAAAATATATTATTTTATATGAACAAGTTTAT [XGTACX_negctrl_site372]”, the “gcPBM binding intensity (ln)” value turned out to be 9.8 ± 0.12.
The result for “AAATGTTATATATAATGTACTTGTAAGAACGTTCCT [XGTACX_site2840]” reads 11.1 ± 0.68.
The value for “AATAATGTATGAAATAAACACACAAGTAAGTACATA [CACACA_site8776]” was 11.7 ± 0.91; that for “ATAATTTTAAATAAATGTACATATAGATGTGTGTAA [XGTACX_site3958]” was 11.2 ± 0.67.
As for “AAAATTATATATTATAGTACATAAAATATTGATAAA [XGTACX_site8988]”, the “gcPBM binding intensity (ln)” value is 11.1 ± 0.66.
In the case of “AAGATACACTTAATCGCACACGAAATTATATATTTA [CACACA_site3063]”, the “gcPBM binding intensity (ln)” value was 10.1 ± 0.24.
The result for “TTTTTTTTTTATGTTATTAAAAAAAAAAAAAATTAA [CACACA_negctrl_site222]” reads 9.99 ± 0.42; that for “TATAACATTGTATGAATGCACTTTTATCTATTTTAA [GTGCAC_site9903]”, 9.79 ± 0.18.
The result for “TATTTATTTATATACACACACTTGTATAAAAAATGT [CACACA_site7048]” reads 10.3 ± 0.33.
The result for “TAAGTATACTCATACACACACACACTAGAAAAAAAA [CACACA_site4397]” reads 10.3 ± 0.31; that for “AGAGATACATAAAAAAGTACATATAAAATTTAGGAA [XGTACX_site7201]”, 11.4 ± 0.88.
Take “TGTGCTCAAAATTATGCACACACCTAAAATTAATTT [CACACA_site8950]”: the “gcPBM binding intensity (ln)” value came out at 10.2 ± 0.14.
The value for “TACAAATTAATATGTACACACAAATATATATATATA [CACACA_site1977]” was 11.4 ± 0.87; that for “ATAATATGAAACTAAGGTACACATATATTAACAGAG [XGTACX_site3842]” was 11.2 ± 0.79.
The result for “TGCGACCATAATAAAGCACACAATGAAAAATATATA [CACACA_site256]” reads 10.4 ± 0.23; that for “AAACCTACATAACATACACACGCATATATATAATTT [CACACA_site8923]”, 10.09 ± 0.099; that for “TATACATATTTTATAGCACACAAATAATAATATGTA [CACACA_site8129]”, 9.95 ± 0.13.
With “CCAACTATATTATGAAGTACATATATATTATATATA [XGTACX_site5767]”, the “gcPBM binding intensity (ln)” value was 11.2 ± 0.71.
The value for “GTAAGTATATATAAATGTACTTATGAGGTCAAATTA [XGTACX_site3392]” was 11.2 ± 0.71; that for “TTGGGTATTTTGTGCGCACACACATGCAAAAAGAAA [CACACA_site8299]” was 11 ± 0.6.
The result for “ATATATATATATTGTAGTACTTATTAAATTATTTAT [XGTACX_site6235]” reads 11.4 ± 0.76.
In the case of “TCTGTATTTCCTTATGCATGCATTAGCAAGATAATA [TGCATGCA_site483]”, the “gcPBM binding intensity (ln)” value is 10.2 ± 0.26.
Turning to “TTTTTTTTTTTTTATTGTACATGCAAAAAATTCCAC [XGTACX_site2371]”, the “gcPBM binding intensity (ln)” value came to 11 ± 0.82.
In the case of “TTATAATTATATACATGTACATATAATACATATATA [XGTACX_site8904]”, the “gcPBM binding intensity (ln)” value came out at 11 ± 0.6.
The value for “AATATATGTATGTACGCATGTATGTATCTATGTATT [TGCATGCA_site389]” was 11.5 ± 0.84; that for “GTATAATTTTCGTATTCACACAAGAATATACTACAT [CACACA_site4877]” was 10.3 ± 0.24; that for “ATATGGGTAATGAATTGTACTCTTTCTTGTTGTTCT [XGTACX_site4487]” was 11.3 ± 0.73.
The result for “TGTAATAAATAGTACACACACACATATTTATATATC [CACACA_site6770]” reads 11.3 ± 0.83; that for “GTTATATTTTTTTATACACACTGGAATATATAAATA [CACACA_site4282]”, 10.1 ± 0.19; that for “AGAAAAGTTTAATACAGTACATAAACAAAGTATAGG [XGTACX_site2386]”, 10.9 ± 0.45.
The value for “GTATATTTATAGCCTTTATTATATTTAATATTATTA [TGCATGCA_negctrl_site26]” was 9.805 ± 0.049; that for “TATAATATTATATATAAACACACATACACATGTAAA [CACACA_site8631]” was 10.2 ± 0.14; that for “TATATATAACTTTATTGTACAAAATATTATGTATTC [XGTACX_site981]” was 10.8 ± 0.39.
With “TTATATTATTTTTAATGTACTTTTTATGAATACAAA [XGTACX_site689]”, the “gcPBM binding intensity (ln)” value turned out to be 11.3 ± 0.88.
The value for “TATACAACTTTATGAAGTACAAAAAGTTCTATATAT [XGTACX_site3866]” was 11.1 ± 0.79; that for TTGTTTTATTATTCGATGCACTACAGAAATATATTC was 10.3 ± 0.4.
Take “AACTATATCATTTATTTTATTTTTTAAATACATTTA [CACACA_negctrl_site183]”: the “gcPBM binding intensity (ln)” value was determined as 9.71 ± 0.13.
Consider “ATAATTATATATTTATGTACGCATAAATATTTATAT [XGTACX_site5765]”, for which the “gcPBM binding intensity (ln)” value amounted to 11.5 ± 1.2.
In the case of “TATTTATTGTGATACTACTATTATTTTATGATTAAA [CACACA_negctrl_site284]”, the “gcPBM binding intensity (ln)” value worked out at 10.5 ± 0.4.
The value for “ACCCAATTTTAAAATGAACACACATGTTTTTCTTAC [CACACA_site8246]” was 10.19 ± 0.021.
The result for “AACATACATAGACACACACACACACGCACACGCACA [CACACA_site6373]” reads 10.3 ± 0.17.
The result for “GAAAATACGTTTAATCGTACATATATATAATATATA [XGTACX_site4243]” reads 11.1 ± 0.88.
Take “TATTTACCCTCATGTTGTACTTTTCATTCATTTTAT [XGTACX_site7794]”: the “gcPBM binding intensity (ln)” value was determined as 11.4 ± 0.75.
The value for “ACAAGTTTTTTTTTATCACACACAAAAAAAAAAATA [CACACA_site8377]” was 10.3 ± 0.41; that for “ATTAATTATAATGTATGTACATAACTTTTTTATATT [XGTACX_site5784]” was 11.2 ± 0.67; that for “TTTATTATTTTTAGGAGTACACAAAATAAAACAAAT [XGTACX_site8841]” was 11.6 ± 1.
The result for “TATAAAAATGTGCACACACACACATATTTATATTTA [CACACA_site6826]” reads 10.4 ± 0.39; that for “AACCTTTATATGTAAAGTACAAAAAAGAGTAAAAAA [XGTACX_site5506]”, 11 ± 0.62.
